The whole screen tested about 71,000 compounds, of which about 1,800 (2.5%) were called active. The inconclusive results got no clear call from the source; some entries with a clear call stand among them for comparison. Calls come from the whole dose curve; as a rule, active = well fitted activation curve with a large enough effect in the signal ratio, with a control signal flat (not every such curve was filed as active); inconclusive = small, poorly fitted or top-dose-only effect, or effect the other way, or a change in a side signal; inactive = flat fitted curve, though single readings scatter; the % refers to the signal ratio. Where the call is inconclusive, the potency comes from a doubtful curve fit.
Assay: Cell signaling CRE-BLA (Fsk stim); for activity change, negative = inhibition: % of control where 0% means no effect
Details: CHO CRE-bla reporter (cAMP response element driving beta-lactamase), forskolin EC10, beta-lactamase ratio; activity change, negative = inhibition: at 38.2 µM (top of the series) unless noted
Procedure, shortened: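 Modulation of forskolin signalling: compounds in titration series added with EC10 NKH 477 to CHO cells carrying a CRE-driven beta-lactamase reporter, 3 h, 37C. CCF4 FRET ratio (460/530 nm, ex 405 nm) gives %activity and AC50.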
With `N#Cc1c(N)nc2c(c1-c1ccc3c(c1)OCO3)CCCCCC2` the activity change, negative = inhibition was inconclusive: 28.4%. With `C/C(=N\O)C(=O)NCc1ccncc1` the activity change, negative = inhibition was inconclusive: -19.3%. For `COc1ccccc1Oc1cc(C#N)c(C#N)cc1-n1nnc2ccccc21`, the “activity change, negative = inhibition” value was inactive: -2.03%. With `Cc1ccc(N=c2oc3cc(O)ccc3cc2C(N)=O)cc1` the Potency was inconclusive: 12.6 µM [rising, single point]. With `c1ccc2[nH]c(-c3nc4ccccc4[nH]3)nc2c1` the Potency was inconclusive: 1 µM [falling, partial curve, poor fit]. For `Cc1c(C(=O)N2CCN(c3ccc(C(F)(F)F)cn3)CC2)oc2ccccc12`, the activity change, negative = inhibition was inconclusive: -23.7%. In the case of `COc1ccc(NC(=O)c2cnn3c(C(F)(F)F)cc(-c4ccco4)nc23)cc1OC`, the Potency is reported as inconclusive: 0.0794 µM [rising, full curve]. In the case of `CC1CC(C)CN(c2ncnc3c2cnn3Cc2ccc(Cl)cc2)C1` (centres undefined), the activity change, negative = inhibition is reported as inconclusive: 27.4%. For `Cc1nc(C)c(C(=O)NCc2ccccc2Cl)o1`, the activity change, negative = inhibition was inconclusive: 26.9%. In the case of `COc1ccc(C(=O)c2ccccc2O)c(O)c1`, the “activity change, negative = inhibition” value is reported as inactive: -0.45% [at 17.1 µM]. In the case of `CC1CCCN(Cc2nc3c(c(=O)n(C)c(=O)n3C)n2CC(=O)c2ccccc2)C1` (centres undefined), the Potency is reported as inconclusive: 25.1 µM [rising, single point]. In the case of `COc1cccc(C2CC(=O)Nc3cc4c(cc32)OCCO4)c1OC(C)C` (centres undefined), the activity change, negative = inhibition is reported as inconclusive: 22.3%. For `CCCCC[C@H](O)C=C[C@H]1[C@H](O)CC(=O)[C@H]1CCCCCCC(=O)O`, the Potency was inconclusive: 0.001 µM [rising, full curve, poor fit]. For `O=C(O)C1C2CCC(O2)C1C(=O)Nc1cccc(F)c1` (centres undefined), the Potency was active: 10 µM. For `COC(=O)[C@H](CC(C)C)NC(=O)NC1CCCc2ccccc21` (some centres undefined), the activity change, negative = inhibition was inconclusive: -27.1%. In the case of `COc1cc(C2Nc3ccc4ncccc4c3C3=C2C(=O)CCC3)cc(OC)c1O` (centres undefined), the Potency is reported as inconclusive: 12.6 µM [rising, single point]. In the case of `COc1ccc2c(=O)c(C(=O)NCCc3ccc(OC)c(OC)c3)c[nH]c2c1`, the Potency is reported as active: 12.6 µM. For `CCOC(=O)COc1ccc(CCNC(C)=O)cc1`, the “activity change, negative = inhibition” value was inactive: -6.41%. For `Nc1c(C(=O)N2CCOCC2)sc(=S)n1-c1ccccc1`, the “activity change, negative = inhibition” value was inactive: 1.98%. With `Cc1nc2sc3c(c2c2nc(-c4ccco4)nn12)CC(C)(C)OC3` the Potency was active: 3.16 µM. For `COCC(=O)Nc1cc(C)c2c(=O)oc3ccccc3c2n1`, the Potency was inconclusive: 10 µM [rising, partial curve]. With `N#Cc1cccc(-c2cc(NCc3cccs3)ncn2)c1` the Potency was inconclusive: 6.31 µM [rising, partial curve]. In the case of `NC(=O)C1C(c2ccccc2)=C1c1ccccc1`, the “activity change, negative = inhibition” value is reported as inactive: 0.637%. With `COc1cccc(-n2nnnc2SCC(=O)c2ccc(NC(C)=O)cc2)c1` the activity change, negative = inhibition was inconclusive: -18%. With `O=C(c1ccccc1)N(Cc1ccccc1)c1ccccn1` the activity change, negative = inhibition was inconclusive: 8.12% [at 7.6 µM]. In the case of `Cc1cc(C(=O)N2CCC(C(F)(F)F)n3nccc32)on1` (centres undefined), the “activity change, negative = inhibition” value is reported as inactive: 2.5%. In the case of `CCc1c(C)nc2ncnn2c1NCCc1ccc(OC)c(OC)c1`, the Potency is reported as inconclusive: 10 µM [rising, single point]. In the case of `O=C(On1c(-c2ccccc2)nc2ccccc2c1=O)c1ccco1`, the activity change, negative = inhibition is reported as inconclusive: -11.1%. In the case of `O=C(c1cccc(F)c1)N1CCC2(CCCN(c3ncccn3)C2)CC1`, the “activity change, negative = inhibition” value is reported as inactive: 8.33%. With `CC[C@@H](CS(=O)(=O)O)[N+](=O)[O-]` the activity change, negative = inhibition was inconclusive: -3.79% [at 7.6 µM]. For `Cc1nnc(SCC(=O)NCc2ccco2)[nH]c1=O`, the activity change, negative = inhibition was inconclusive: 18.9%. For `COc1cc2c(cc1OC)-c1cc(NC3CCCCCCC3)nc(=O)n1CC2`, the Potency was active: 0.398 µM. In the case of `CN1C(=C2C(=O)OC(C)(C)OC2=O)Sc2ccccc21`, the “activity change, negative = inhibition” value is reported as inactive: 2.95%. For `CCCn1c(C)nc2c(NCC3CCCN3CC)nc(C)nc21` (centres undefined), the “activity change, negative = inhibition” value was inactive: 5.65%. For `Cc1nn(CCc2nc(-c3ccco3)cs2)c2[nH]c(=O)cc(C(F)(F)F)c12`, the Potency was active: 0.501 µM. For `N#CCCn1c(=O)c(CCc2ccccc2)nc2cnc(N3CCOCC3)nc21`, the Potency was active: 3.16 µM. In the case of `CN(C)C=Nc1ncc2c3ccccc3n(CCN(C)C)c2c1C#N`, the “activity change, negative = inhibition” value is reported as inactive: -0.337%. With `COc1ccc(CNc2ncncc2-c2ccc(N(C)C)cc2)c(OC)c1` the Potency was inconclusive: 10 µM [rising, single point]. For `CC1N/C(=C\C(=O)c2ccccc2)N(O)C1(C)C` (centres undefined), the “activity change, negative = inhibition” value was inactive: -4.25%. For `N#Cc1c(NC(=O)c2ccc(Cn3cc(Br)cn3)o2)sc2c1CCCCCC2`, the activity change, negative = inhibition was inconclusive: 20.5%. In the case of `CCOC(=O)CN(C(=O)CSc1nnc2c(n1)[nH]c1ccccc12)c1ccccc1`, the activity change, negative = inhibition is reported as inconclusive: 24.8%. With `O=c1c2ccccc2nc(SCc2cn3ccsc3n2)n1-c1ccccc1F` the Potency was active: 5.01 µM. With `O=C(CSc1nnc2scc(-c3ccccc3)n12)Nc1ccc2c(c1)OCCO2` the activity change, negative = inhibition was inconclusive: 19.7%. In the case of `CNC(=O)c1ccc(-c2sc3nc(N4CCOCC4)c4c(c3c2N)CCCC4)o1`, the Potency is reported as inconclusive: 1.58 µM [rising, partial curve]. With `O=C(c1csnn1)N1CCC2(CC1)CN(c1ccccn1)C2` the activity change, negative = inhibition was inconclusive: 8.8%. With `Fc1ccc(-c2noc(C3CCN(Cc4cccnc4)CC3)n2)cc1` the activity change, negative = inhibition was inconclusive: -9.25%. For `Cc1c(Cl)cccc1NC(=O)CSc1nnc(CCNC(=O)OC(C)(C)C)o1`, the activity change, negative = inhibition was inconclusive: -5.49%. For `COc1ccc(-c2cc(C(F)F)n3ncc(C(=O)NCC4CCCO4)c3n2)cc1` (centres undefined), the Potency was inconclusive: 3.98 µM [rising, partial curve]. In the case of `COc1ccccc1CN1CCC2(CC1)CCN(C(=O)c1csnn1)CC2`, the “activity change, negative = inhibition” value is reported as inactive: -5.64%. With `C[C@@H]1O[C@@H](O)[C@@H](O)[C@H](O)[C@H]1O` the activity change, negative = inhibition was inactive: 17.9% [at 7.6 µM]. With `Cc1c(C)c2c(C)nn(-c3ccccc3)c2[nH]c1=O` the Potency was inconclusive: 3.98 µM [rising, partial curve]. In the case of `Cc1ccccc1S(=O)(=O)Cc1ccc(C(=O)N2CCN(c3cccc(C)c3C)CC2)o1`, the activity change, negative = inhibition is reported as inconclusive: -29.7%. With `Nc1ccc2nc3n(c(=O)c2c1)CCC3` the “activity change, negative = inhibition” value was inactive: -0.763%. In the case of `CCOC(=O)c1c(C)oc(NC(=O)COc2ccc(Cl)cc2C)c1C#N`, the activity change, negative = inhibition is reported as inconclusive: 14.7%. For `Cn1nnc2cc(NC(=O)N3CC4(C)CC3CC(C)(C)C4)ccc21` (centres undefined), the “activity change, negative = inhibition” value was inactive: -6.38%. With `COc1ccc(-c2cc(C(=O)N3CCN(C(c4ccccc4)c4ccccc4)CC3)no2)cc1` the activity change, negative = inhibition was inconclusive: 19.2%. With `CCc1nnc2n1N=C(c1ccc(-c3ccc(Cl)cc3Cl)o1)CS2` the “activity change, negative = inhibition” value was inactive: 4.61%. For `COC(=O)c1ccc(C(NC(=O)OCc2ccccc2)/C(=C/[C@@H](C)C(=O)NCc2cc(C)on2)c2cccnc2)cc1` (some centres undefined), the “activity change, negative = inhibition” value was inactive: -13%. With `COc1ccccc1Nc1ncnc2c1oc1ccccc12` the “activity change, negative = inhibition” value was inactive: 31.9%. With `CC(=O)N1CCc2[nH]c3ccccc3c2C1` the “activity change, negative = inhibition” value was inactive: -1.64%. In the case of `Cc1noc(C)c1CSc1nnc2scc(-c3ccc(Cl)cc3)n12`, the Potency is reported as inconclusive: 12.6 µM [rising, single point]. With `CCOC(=O)CSc1nnc(CNC(=O)c2cccs2)n1CCc1ccccc1` the activity change, negative = inhibition was inconclusive: 16.4%. For `O=C(c1ccccc1)c1c[nH]c2cc3c(cc2c1=O)OCCO3`, the Potency was inconclusive: 12.6 µM [falling, single point]. In the case of `Cc1cc(C)c(S(=O)(=O)Nc2cccc3nsnc23)c(C)c1`, the Potency is reported as inconclusive: 12.6 µM [rising, partial curve, poor fit]. With `CC1Cc2ccccc2N1C(=O)C1CCCN(S(=O)(=O)c2cccc3nsnc23)C1` (centres undefined) the “activity change, negative = inhibition” value was inactive: -28.7%. In the case of `COc1ccccc1CN1C(=O)[C@@H]2C(CC(N)=O)NC3(C(=O)Nc4c3ccc(Cl)c4C)[C@@H]2C1=O` (some centres undefined), the activity change, negative = inhibition is reported as inconclusive: -3.67%. For `COc1ccc2cccc(N3CCN(CCNC(=O)c4ccc(F)cc4)CC3)c2c1`, the Potency was inconclusive: 10 µM [falling, partial curve]. With `O=C1CCCN1CCCNc1ccc(S(=O)(=O)N2CCCCC2)cn1` the activity change, negative = inhibition was inconclusive: -10.9%. In the case of `O=C(Nc1nnc(CC(=O)N2CCOCC2)s1)C1COc2ccccc2O1` (centres undefined), the activity change, negative = inhibition is reported as inconclusive: -1.6%. With `Cc1nc(NCc2ccco2)c(C#N)c2c1COC(C)(C)C2` the Potency was inconclusive: 10 µM [rising, single point]. In the case of `C=CCSc1nnc(-c2ccccc2NC(C)=O)c(=O)[nH]1`, the activity change, negative = inhibition is reported as inconclusive: 5.94%. In the case of `C=C(C)Cn1c(SCC)nc2ccccc2c1=O`, the Potency is reported as inconclusive: 12.6 µM [rising, partial curve]. With `Cc1cc(C)nc(N2CCC(C(=O)NC3CCCc4ccccc43)CC2)n1` (centres undefined) the Potency was inconclusive: 12.6 µM [falling, single point]. With `Cc1cc(NC(=O)CN2CCCCCCC2)no1` the Potency was inconclusive: 0.251 µM [falling, partial curve]. With `CN1CCN(C(=O)N2CCNC2=O)CC1` the “activity change, negative = inhibition” value was inactive: -0.305%. In the case of `N#CCSc1nnc2ccc3ccccc3n12`, the “activity change, negative = inhibition” value is reported as inactive: -3.85%. In the case of `CCCCN(CC)CCNC(=O)c1cc2c(=O)n(C)c3ccccc3c2n1C`, the Potency is reported as inconclusive: 10 µM [rising, single point]. For `COC(=O)c1ccc(CSc2nc3c(cnn3-c3ccc(C)c(C)c3)c(=O)[nH]2)o1`, the Potency was inconclusive: 2.51 µM [rising, partial curve]. With `COCCn1c(=O)c(-c2cc(F)cc(F)c2)nc2cnc(Oc3ccc(OC)cc3)nc21` the activity change, negative = inhibition was inconclusive: 7.03%. With `O=C(NCCCN1CCN(c2cccc(Cl)c2)CC1)c1nc(-c2ccncc2)no1` the “activity change, negative = inhibition” value was inactive: -11.9%. In the case of `CCOC(=O)c1oc2ccc(S(=O)(=O)n3nc(-c4ccc(OC)cc4)cc3N)cc2c1C`, the Potency is reported as inconclusive: 3.98 µM [rising, partial curve]. For `CCOC(=O)C1CCN(S(=O)(=O)c2cccc(-c3cn4cccc(C)c4n3)c2)CC1`, the Potency was inconclusive: 25.1 µM [rising, single point]. For `O=C(OCCOCCO)c1ccccc1Nc1cccc(C(F)(F)F)c1`, the “activity change, negative = inhibition” value was inactive: 4.36% [at 17.1 µM]. In the case of `COc1ccc(OC)c(NC(=O)c2cn(C)c(=O)c3cc(OC)c(OC)cc23)c1`, the Potency is reported as active: 0.794 µM.

— PubChem BioAssay AID662 (National Center for Advancing Translational Sciences (NCATS), 2007)
Potency is the fitted concentration of half-maximal effect; tags give direction and shape of the fitted curve.
